# Reference: PubChem BioAssay AID1460 (National Center for Advancing Translational Sciences (NCATS), 2008)
# The campaign covered roughly 270,000 compounds. About 5,800 (2.1%) were called active. Inconclusive means that the source gave no clear call. Such entries were picked first, then a sample of the others. The call rests on the fitted dose curve; in most records, active means well fitted inhibition curve with a large enough effect; inconclusive means small, poorly fitted or top-dose-only effect; inactive means flat fitted curve, though single readings scatter. Potencies of inconclusive entries are doubtful fits and often do not repeat.
# Target: Microtubule-associated protein tau (Homo sapiens) (UniProt P10636)
# Assay: qHTS for Inhibitors of Tau Fibril Formation, Thioflavin T Binding; further: nearly all actives have a fitted effect of over 55% in size
# Settings: recombinant tau K18 P301L (four-repeat tau fragment), heparin-induced fibrillization, ThT fluorescence; series mostly up to 57.4 µM; activity, negative = inhibition: at the top concentration
# How it was run: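 Recombinant human tau K18 fragment […] carrying P301L, 15 uM unlabeled plus 0.24 uM Alexa 594-labeled, was fibrillized with 20 uM heparin in 100 mM sodium acetate pH 7 for 6 hr at 37 C; 30 uM ThT fluorescence read after 1 hr.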
# On the % scale 0 is the no-effect control and ±100 the full control effect; potency means the concentration at half of the fitted maximal effect; tags describe the fitted curve by direction and shape.
# Chain of UniProt P10636 (P10636 whole entry, looked up): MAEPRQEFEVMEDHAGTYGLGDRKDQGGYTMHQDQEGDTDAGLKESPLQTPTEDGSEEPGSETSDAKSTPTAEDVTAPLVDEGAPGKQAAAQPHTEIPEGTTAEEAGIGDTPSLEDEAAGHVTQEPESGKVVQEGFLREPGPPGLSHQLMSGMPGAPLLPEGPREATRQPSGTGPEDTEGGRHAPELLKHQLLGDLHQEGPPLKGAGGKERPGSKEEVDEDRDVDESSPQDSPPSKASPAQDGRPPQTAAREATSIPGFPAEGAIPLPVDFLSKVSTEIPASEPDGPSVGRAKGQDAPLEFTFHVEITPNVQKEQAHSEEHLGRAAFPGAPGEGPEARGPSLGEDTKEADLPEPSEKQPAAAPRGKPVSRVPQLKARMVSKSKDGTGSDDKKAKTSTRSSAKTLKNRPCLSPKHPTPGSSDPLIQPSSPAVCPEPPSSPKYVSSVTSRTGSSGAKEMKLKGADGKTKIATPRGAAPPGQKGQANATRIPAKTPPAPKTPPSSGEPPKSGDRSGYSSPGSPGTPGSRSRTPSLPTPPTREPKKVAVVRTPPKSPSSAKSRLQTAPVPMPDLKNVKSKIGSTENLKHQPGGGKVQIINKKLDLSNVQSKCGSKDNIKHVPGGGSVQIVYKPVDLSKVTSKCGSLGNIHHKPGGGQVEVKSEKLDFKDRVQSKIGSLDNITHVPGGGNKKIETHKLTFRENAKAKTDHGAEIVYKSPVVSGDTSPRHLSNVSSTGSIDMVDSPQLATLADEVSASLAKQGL
SMILES,Potency,"activity, negative = inhibition"
CC(=O)NNC(=O)c1sc(=S)n2c1[nH]c(=O)c1sccc12,"inconclusive: 15.8 µM [inhibitor, partial curve]",–
COc1ccc(NC(=O)c2ccc(NC(=O)CN(C)CC(=O)Nc3c(C)cccc3C)cc2)cc1,"inconclusive: 20 µM [inhibitor, partial curve, poor fit]",–
CCN(Cc1ccccc1)C(=O)Cn1c(=O)n(-c2ccc(Cl)cc2)c(=O)c2c(C)c(C)sc21,–,inactive: -4.08%
O=C(O)CCCCC1SCC2NC(=O)NC21 (stereo not given),inactive,–
CCc1nnc(SCC(=O)N(CC)c2ccccc2)c2cc3oc(C)cc3n12,"inconclusive: 25.1 µM [inhibitor, partial curve]",–
Cc1ccc(Cl)cc1N1CCN(C(=O)c2cc(S(=O)(=O)N3CCCC3)c[nH]2)CC1,"inconclusive: 22.4 µM [inhibitor, single point]",–
Cc1nc(C)c(/C(O)=C\c2nc3ccc([N+](=O)[O-])cc3oc2=O)o1,"inconclusive: 20 µM [inhibitor, partial curve, poor fit]",–
O=C(c1ccc(-n2cccc2)cc1)N1CCN(Cc2ccccc2)CC1,–,inactive: -2.12%
COC(=O)c1c(O)cc(=O)n2c1CCCCC2,–,inactive: -2.77%
CCCC(=O)OCCNc1cc(SCc2ccco2)c2nonc2c1[N+](=O)[O-],active: 3.98 µM,–
Cc1ccc2c(c1)C(=O)[C@@]1(O)CCN(c3ccccc3)C1=N2,active: 20 µM,–
Cc1ccc(C(=O)C(c2ccccc2)N2Cc3ccccc3C2=N)cc1 (stereo not given),"inconclusive: 7.94 µM [inhibitor, full curve]",–
Cc1ccc(C)c(Oc2nc3c(c(=O)n(C)c(=O)n3C)n2Cc2ccccc2)c1,"inconclusive: 14.1 µM [inhibitor, partial curve, poor fit]",–
O=C(Nc1cccc(Cl)c1)c1ccc(NCC2CCCO2)c([N+](=O)[O-])c1 (stereo not given),"inconclusive: 1.58 µM [inhibitor, full curve]",–
Cc1ccc(/C=C/C(=O)Nc2cccc3ncccc23)o1,"inconclusive: 31.6 µM [inhibitor, partial curve]",–
COc1ccc(C2CC(c3c(-c4ccccc4)c4cc(Cl)ccc4[nH]c3=O)=NN2S(C)(=O)=O)cc1 (stereo not given),–,inactive: -5%
O=C(O)c1cccc(N/N=C/c2cn(-c3ccccc3)nc2-c2cccs2)c1,"inconclusive: 25.1 µM [inhibitor, partial curve]",–
O=C(CN1CCN(c2ccc(Cl)cc2)CC1)c1ccc2c(c1)OCO2,"inconclusive: 2.51 µM [inhibitor, partial curve]",–
COc1cnc(-c2ccccn2)nc1Oc1c(C)cccc1C,–,inactive: -13.6%
Cc1ccc(C)c(Cn2c(=O)n(-c3ccc(Cl)cc3)c(=O)c3c(C)c(C)sc32)c1,–,inactive: 0.722%
O=C(O)Cn1cc2c(n1)CCCCC2,–,inactive: -4.73%
COc1ccc(S(=O)(=O)Nc2ccc(O)c(Sc3ncn[nH]3)c2)cc1,–,inactive: -2.41%
Cn1cc(CNCc2cn(C)nc2-c2ccc(C3CCCCC3)cc2)cn1,–,inactive: -8.73%
Cc1sc2nc(C3CC3)nc(SCC(=O)N3c4ccccc4CC3C)c2c1C (stereo not given),"inconclusive: 14.1 µM [inhibitor, partial curve]",–

SMILES,Potency,"activity, negative = inhibition"
FC(F)(F)c1ccc2c(c1)n(Cc1ccccc1)c1[n+]2CCCCC1,–,inactive: -9.62%
CCOc1cc(CNc2ccc(OC)cc2)cc(Br)c1OCC(=O)NC(C)(C)C,"inconclusive: 17.8 µM [inhibitor, partial curve, poor fit]",–
CCOC(=O)C(NC(=O)N(C)C)(Nc1sc(C)c(CC)c1C#N)C(F)(F)F (stereo not given),"inconclusive: 12.6 µM [inhibitor, partial curve]",–
COc1ccc2c(c1)C=CC1(O2)N(CCO)c2ccccc2C1(C)C (stereo not given),"inconclusive: 25.1 µM [inhibitor, partial curve]",–
COc1ccc(S(=O)(=O)NCCSCc2ccco2)cc1Cl,–,inactive: -14.4%
COC(=O)c1ccc(NC(=O)C(=O)c2cccn2C)cc1,"inconclusive: 10 µM [inhibitor, partial curve]",–
COc1ccc(CN2CCN(C(=O)CC(C)C)CC2)c(OC)c1OC,–,inactive: -4.7%
COc1ccccc1NC(=O)Cn1nc2c3cc(F)ccc3n(Cc3cccc(C)c3)cc-2c1=O,"inconclusive: 15.8 µM [inhibitor, partial curve]",–
O=C(Oc1ccccc1F)c1nc(SCc2ccccc2F)ncc1Cl,active: 22.4 µM,–
CC(C)CNC(C(=O)Nc1ccc([N+](=O)[O-])cc1Br)c1ccccc1 (stereo not given),–,inactive: 6.23%
Cc1cc(C)cc(OCC(=O)Nc2ccc(F)cc2)c1,"inconclusive: 39.8 µM [inhibitor, single point]",–
Cc1[nH]c2ccccc2c1SCc1nnc(SCc2ccccc2)n1C,"inconclusive: 17.8 µM [inhibitor, partial curve, poor fit]",–
CC1CCN(C(=O)c2ccc(CSc3ccc(Cl)cc3)cc2)CC1,"inconclusive: 20 µM [inhibitor, partial curve]",–
C/C(CC1CC(C)(C)OC1=O)=N/Nc1nc(-c2ccccc2)cs1 (stereo not given),active: 25.1 µM,–
O=C(NC(C(=O)c1ccccc1)n1c(=O)cc[nH]c1=S)c1ccccc1 (stereo not given),"inconclusive: 35.5 µM [inhibitor, single point]",–
Cc1cc(C)cc(NS(=O)(=O)c2c(C)nc3scc(C)n3c2=O)c1,–,inactive: -3.81%
CCCCNC(=O)C(C#N)c1nc2ccccc2nc1N1CCN(c2ccccc2F)CC1 (stereo not given),"inconclusive: 3.98 µM [inhibitor, partial curve, poor fit]",–
O=C(O)CCCC(=O)Nc1ccn(-c2ccccc2)n1,–,inactive: 1.28%
CN(C)c1cc(N/N=C/c2ccc(Cl)cc2)nc(N(C)C)n1,active: 14.1 µM,–
O=C(CSc1nc2ccccc2s1)N/N=C/c1ccccc1C(=O)O,"inconclusive: 44.7 µM [inhibitor, single point]",–
O=C1c2ccccc2C(Nc2ccc(S(=O)(=O)N3CCCCC3)cc2)N1c1ccccn1 (stereo not given),"inconclusive: 31.6 µM [inhibitor, single point]",–
Cc1c(C(=O)N2CCc3ccccc3C2)sc2nc(-c3ccccc3)cn12,"inconclusive: 20 µM [inhibitor, partial curve, poor fit]",–
CNC(=O)c1c(C)[nH]c(=S)c(C#N)c1-c1ccco1,"inconclusive: 10 µM [inhibitor, single point]",–
[N-]=[N+]=CC(=O)c1ccnc(C(=O)C=[N+]=[N-])c1,–,inactive: -12.1%

SMILES,Potency,"activity, negative = inhibition"
COc1ccccc1NC(=O)CCC(=O)c1ccc(-c2ccccc2)cc1,"inconclusive: 11.2 µM [inhibitor, partial curve]",–
Cc1ccc(/C=N/Nc2ccc(C(=O)O)cc2)o1,"inconclusive: 44.7 µM [inhibitor, single point]",–
COCCCNC(=O)/C(C#N)=C1\N=C(NC(=O)c2cccs2)c2ccccc21,"inconclusive: 15.8 µM [inhibitor, partial curve, poor fit]",–
O=C(CNc1ccc2ccccc2c1)N/N=C/C=C/c1cccc([N+](=O)[O-])c1,"inconclusive: 2.51 µM [inhibitor, full curve]",–
NC(=O)C1(NC(=O)[C@@H]2CC3(CC(c4cccc(NC(=O)[C@@H]5CCC(=O)N5)c4)=NO3)CN2C(=O)c2cnccn2)CC1 (stereo not given in full),–,inactive: 3.94%
Cc1ccccc1NC(=O)CSc1n[nH]c(-c2ccco2)n1,–,inactive: -5.74%
O=[N+]([O-])c1cc(S(=O)(=O)Nc2ccccc2)ccc1NCc1ccccc1,"inconclusive: 14.1 µM [inhibitor, partial curve]",–
CCN(CC)S(=O)(=O)c1ccc(Cl)c(C(=O)NCc2ccccc2Cl)c1,"inconclusive: 6.31 µM [inhibitor, partial curve]",–
Cc1cc(C(=O)CN2C(=O)NC(C)(CC(C)C)C2=O)c(C)n1-c1ccc2c(c1)OCO2 (stereo not given),"inconclusive: 31.6 µM [inhibitor, partial curve]",–
O=c1c2c3nc4ccccc4nc3n(/N=C/c3ccccn3)c2ncn1-c1ccccc1,"inconclusive: 20 µM [inhibitor, partial curve]",–
COc1ccc(OC)c(NC(=O)N2CCCC(CNS(=O)(=O)c3cccs3)C2)c1 (stereo not given),–,inactive: -11.5%
Cc1ccc(/C=C/C(=O)NC(=S)Nc2ccccc2C(=O)NC2CCCCC2)cc1,"inconclusive: 3.98 µM [inhibitor, full curve, poor fit]",–
COc1ccc(Nc2ncc3c(n2)CCN(Cc2cccc(F)c2F)C3)c(OC)c1,"inconclusive: 17.8 µM [inhibitor, partial curve]",–
NC(=O)NC(CC(=O)NCCCc1ccccc1)c1ccccc1Cl (stereo not given),"inconclusive: 3.98 µM [inhibitor, single point]",–
COc1cc(NC(=S)NCc2ccc(S(N)(=O)=O)cc2)c(OC)cc1Cl,–,inactive: -2.44%
c1ccc(CCc2ccccc2-c2nc(-c3cccnc3)no2)cc1,"inconclusive: 15.8 µM [inhibitor, partial curve]",–
CCOC(=O)c1cccc(NC(=O)CSc2cc(=O)n(C)c3ccccc23)c1,–,inactive: 8.06%
NC(=O)COc1ccc2oc(-c3ccccc3)cc(=O)c2c1,"inconclusive: 3.16 µM [inhibitor, full curve, poor fit]",–
O=C(CN1CCN(Cc2ccccc2)CC1)N/N=C/C=C/c1ccco1,"inconclusive: 44.7 µM [inhibitor, single point]",–
CC(C)NCCCCOc1ccccc1-c1ccccc1,–,inactive: -12.4%
Cc1ccc(CN2c3ccccc3-c3nc(SCC(=O)NCCc4ccccc4)ncc3S2(=O)=O)cc1,"inconclusive: 7.94 µM [activator, partial curve, poor fit]",–
CN(C(=O)/C=C/c1ccc([N+](=O)[O-])s1)c1ccccc1,"inconclusive: 15.8 µM [inhibitor, partial curve]",–
